# Laboratory results published in PMC5892938.
# The list shows a part of the results. At the low end of the ranking the order means little.
# Biological target: GST-SBP-SLBP (stem-loop binding protein) (UniProt Q14493)
# Test: targeted RNA Bind-n-Seq;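 note: DESeq read counts versus GST-SBP nonspecific binding control pulldown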
# Conditions: RBNS binding buffer: 25 mM Tris pH 7.5, 150 mM KCl, 3 mM MgCl2, 0.1% Tween, 0.5 mg/mL BSA, 1 mM DTT; 27 nM protein, 750 pM RNA pool; temperature not stated; high values mean tight binding
row,Sequence,binding signal (log2 fold change)
1,GGUCACGUCUCAAUCAACUCUAUCUCAGGAGUUUUCUCCUGCUAACUCAACAGCUCGCAGUCAAG,-0.0805
2,GGUCACGUCUCAAUCAACUCAUUAGAGGGGGGGAAAACCCCUUUACCCUCAAUAUCAACAGCUCGCAGUCAAG,-0.0895
3,GGUCACGUCUCAAUCAACUCAAUCCCCAGGGAAAACCCUGGUAUUCUCAACAGCUCGCAGUCAAG,0.102
4,GGUCACGUCUCAAUCAACUCUAUGUCAGGAGUUUACUCCUGCUAAUUCAACAGCUCGCAGUCAAG,0.0189
5,GGUCACGUCUCAAUCAACUCACAAGAGGGGGGGAAAACCCCUUUGCCCUCGUAUUCAACAGCUCGCAGUCAAG,-0.492
6,GGUCACGUCUCAAUCAACUCUUCUUCCAGGGAAAACCCUGGUUAUCUCAACAGCUCGCAGUCAAG,-0.23
7,GGUCACGUCUCAAUCAACUCAUCUUCCAGGGAAAUCCCUGGCAAACUCAACAGCUCGCAGUCAAG,0.0166
8,GGUCACGUCUCAAUCAACUCCAAUGAGGGGGGGAAAACCCCUUUACCCUCCAAAUCAACAGCUCGCAGUCAAG,-0.373
9,GGUCACGUCUCAAUCAACUCAUUCCCAGGAGUUUCCUCCUGUAGUCUCAACAGCUCGCAGUCAAG,0.119
10,GGUCACGUCUCAAUCAACUCAAUCUCAGGAGUUUUCUCCUGCAAUGUCAACAGCUCGCAGUCAAG,0.14
11,GGUCACGUCUCAAUCAACUCAUUCUCCAGGGAAAACCCUGGCAUACUCAACAGCUCGCAGUCAAG,-0.116
12,GGUCACGUCUCAAUCAACUCUUCCCCCAGGGAAAGCCCUGGCAUUCUCAACAGCUCGCAGUCAAG,-0.00216
13,GGUCACGUCUCAAUCAACUCAUCUUCCAGGGAAAACCCUGGCUUAUUCAACAGCUCGCAGUCAAG,0.115
14,GGUCACGUCUCAAUCAACUCUAUUCCAGGAGUUUCCUCCUGUAUUCUCAACAGCUCGCAGUCAAG,-0.0423
15,GGUCACGUCUCAAUCAACUCAAUCUCAGGAGUUUGCUCCUGUAUACUCAACAGCUCGCAGUCAAG,0.0522
16,GGUCACGUCUCAAUCAACUCAUUCGAGGGGGGGAAAACCCCUUUGCCCUCAUCAUCAACAGCUCGCAGUCAAG,0.363
17,GGUCACGUCUCAAUCAACUCUAUUCCCAGGGAAAGCCCUGGCUAACUCAACAGCUCGCAGUCAAG,-0.13
18,GGUCACGUCUCAAUCAACUCCCAAGAGGGGGGGAAAACCCCUUUACCCUCAUCAUCAACAGCUCGCAGUCAAG,0.074
19,GGUCACGUCUCAAUCAACUCCUAAGAGGGGGGGAAAACCCCUUUACCCUCACCUUCAACAGCUCGCAGUCAAG,0.166
20,GGUCACGUCUCAAUCAACUCACAAGAGGGGGGGAAAACCCCUUUGCCCUCAUUCUCAACAGCUCGCAGUCAAG,-0.344
